Experimental findings from patent publication US20210163599A1 (AVACTA LIFE SCIENCES, published 2021) are described below.

To fix the notation:
B1: AVA04-251 AZ (Fc fusion)
chain: IPRGLSEAKPATPEIQEIVDKVKPQLEEKTGETYGKLEAVQYKTQVLAREGRQDWVLSTNYYIKVRAGDNKYMHLKVFNGPWVPFPHQQLADRVLTGYQVDKNKDDELTGFAAA[human IgG1 Fc skipped]
notes: Affimer fused to the Fc hinge by AAA only
B2: AVA04-251 BS (Fc fusion)
chain: IPRGLSEAKPATPEIQEIVDKVKPQLEEKTGETYGKLEAVQYKTQVLAREGRQDWVLSTNYYIKVRAGDNKYMHLKVFNGPWVPFPHQQLADRVLTGYQVDKNKDDELTGF[human IgG1 Fc skipped]IPRGLSEAKPATPEIQEIVDKVKPQLEEKTGETYGKLEAVQYKTQVLAREGRQDWVLSTNYYIKVRAGDNKYMHLKVFNGPWVPFPHQQLADRVLTGYQVDKNKDDELTGF
notes: Affimer - human IgG1 Fc - Affimer; four Affimers in the Fc dimer
B3: AVA04-251 AG.3 (Fc fusion)
chain: IPRGLSEAKPATPEIQEIVDKVKPQLEEKTGETYGKLEAVQYKTQVLAREGRQDWVLSTNYYIKVRAGDNKYMHLKVFNGPWVPFPHQQLADRVLTGYQVDKNKDDELTGFAAAGGGGSGGGGSGGGGSIPRGLSEAKPATPEIQEIVDKVKPQLEEKTGETYGKLEAVQYKTQVLAREGRQDWVLSTNYYIKVRAGDNKYMHLKVFNGPWVPFPHQQLADRVLTGYQVDKNKDDELTGFLQAAAAAAGGGGSGGGGSGGGGSGGGGS[human IgG1 Fc skipped]
notes: Two Affimers in line at the N-terminus of human IgG1 Fc; four Affimers in the Fc dimer

The target of the test is T1, huPD-L1-Fc (R&D Systems) (human, UniProt Q9NZQ7 fragment).
T1 construct: Bought from R&D Systems; also called hPDL1-Fc; human PD-L1 Fc antigen
T1 sequence (Q9NZQ7 19-239 limits assumed): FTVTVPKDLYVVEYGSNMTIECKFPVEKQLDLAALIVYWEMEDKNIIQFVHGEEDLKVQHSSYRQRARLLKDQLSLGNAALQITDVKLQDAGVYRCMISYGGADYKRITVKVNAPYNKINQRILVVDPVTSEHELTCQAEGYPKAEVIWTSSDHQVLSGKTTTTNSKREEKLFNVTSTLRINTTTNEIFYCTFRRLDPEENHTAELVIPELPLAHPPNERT
Kind of test: Biacore single cycle kinetics, 1:1 binding model. A general note: SPR reads the build-up and loss of mass on a sensor chip optically.
In the case of B1, the affinity, expressed as Kd, was 0.0315 nM.
The same measure for B2: 0.0257 nM; for B3: 0.0362 nM.

In general, Kd refers to the concentration at which binding is half-saturated.
